Data: paper PMC4336329 (PLoS ONE, 2015)
Among all 310,000 compounds or so, about 2,200 (0.71%) showed an effect of 50% or more. The effect is printed as a negative number. This is one part of the list.

The molecules below were run against human ether-à-go-go-related gene (hERG) potassium channel (human, UniProt Q12809) (assay: primary screen, population patch clamp on CHO cells stably expressing hERG).
Sequence of human ether-à-go-go-related gene (hERG) potassium channel (Q12809 whole entry, looked up): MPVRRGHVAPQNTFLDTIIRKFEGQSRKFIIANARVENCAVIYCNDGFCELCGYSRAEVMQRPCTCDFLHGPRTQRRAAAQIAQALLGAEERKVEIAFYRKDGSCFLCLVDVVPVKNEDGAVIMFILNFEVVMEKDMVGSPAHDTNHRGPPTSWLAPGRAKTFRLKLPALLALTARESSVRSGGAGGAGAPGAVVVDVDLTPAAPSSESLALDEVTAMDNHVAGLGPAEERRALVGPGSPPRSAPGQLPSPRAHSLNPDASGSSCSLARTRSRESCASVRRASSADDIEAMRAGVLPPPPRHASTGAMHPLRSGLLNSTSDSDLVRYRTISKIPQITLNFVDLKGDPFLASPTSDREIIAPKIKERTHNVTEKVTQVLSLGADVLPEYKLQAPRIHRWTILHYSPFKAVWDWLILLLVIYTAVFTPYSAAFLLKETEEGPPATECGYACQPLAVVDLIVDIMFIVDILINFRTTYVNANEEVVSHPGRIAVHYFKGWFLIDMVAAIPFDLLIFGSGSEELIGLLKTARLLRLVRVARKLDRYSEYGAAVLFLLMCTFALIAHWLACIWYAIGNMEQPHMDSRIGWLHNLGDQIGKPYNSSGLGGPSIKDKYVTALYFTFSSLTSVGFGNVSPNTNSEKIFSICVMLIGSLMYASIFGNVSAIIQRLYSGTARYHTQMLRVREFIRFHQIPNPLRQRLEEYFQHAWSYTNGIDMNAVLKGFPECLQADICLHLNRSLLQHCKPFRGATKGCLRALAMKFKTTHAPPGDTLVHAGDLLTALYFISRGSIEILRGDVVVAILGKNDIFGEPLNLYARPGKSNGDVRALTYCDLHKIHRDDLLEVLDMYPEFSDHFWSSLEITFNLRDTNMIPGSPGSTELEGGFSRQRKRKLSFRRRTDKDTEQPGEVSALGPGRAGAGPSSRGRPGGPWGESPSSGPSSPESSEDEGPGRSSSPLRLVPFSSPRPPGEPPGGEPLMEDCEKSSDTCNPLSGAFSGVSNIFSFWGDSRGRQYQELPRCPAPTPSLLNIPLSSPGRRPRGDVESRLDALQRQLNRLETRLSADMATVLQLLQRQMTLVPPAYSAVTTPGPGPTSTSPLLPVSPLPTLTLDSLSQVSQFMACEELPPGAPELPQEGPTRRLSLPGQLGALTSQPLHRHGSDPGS

SMILES | hERG current change (%, negative = inhibition) at 1uM [%]
CCc1cccc2c1NC(=O)C2(O)CC(=O)c1cccs1 (stereo not drawn) | 21.1
COc1ccc(Cl)cc1NS(=O)(=O)c1ccc2c(c1)NC(=O)CCS2 | 7.88
N#CNC(=Nc1cccc(Cl)c1)Oc1ccccc1 | 8.69
CC1(C)CC(=O)c2sc(NC(=O)CN3CCCCC3)nc2C1 | 6.72
Cc1cc(OC(=O)c2ccccc2F)c([N+](=O)[O-])c(=O)[nH]1 | 13
Cc1cc2c(ncn2C(C)C)c(N)c1C | -7.87
COc1ccc(N2CCN(C(=O)Cn3cnc4c(cnn4-c4ccccc4)c3=O)CC2)cc1 | 5.22
O=C(NCC(=O)N(c1ccc2c(c1)OCO2)C(C(=O)NC1CCCC1)c1ccncc1)c1ccco1 (stereo not drawn) | 1.4
Cc1ccc(NC(=O)CCNS(=O)(=O)c2cccs2)cc1F | 13.4
O=C(CCC1(C(=O)O)CCC(=O)NC1)NCc1ccccc1 (stereo not drawn) | 8.82
N#C/C(=C\c1ccc(OCc2ccccc2)cc1)C(=O)Nc1nc2c(s1)CCN(Cc1ccccc1)C2 | 14.8
O=C1NC(=O)/C(=C\c2cn(CC(=O)N3CCOCC3)c3ccccc23)S1 | 12.3
O=C(/C=C/c1ccc(Br)cc1)NC(=S)NNC(=O)c1ccco1 | 7
COc1cccc(-c2nc(CS(=O)(=O)CC(=O)NCCN3CCOCC3)c(C)o2)c1 | 12
CCOC(=O)c1c(NC(=O)C2Cc3ccccc3C(=O)O2)sc2c1CCCC2 (stereo not drawn) | 11.1
O=S(=O)(c1c(Cl)sc(Cl)c1Br)N1CCCC1 | 9.04
CCSc1nc2ccccc2n1CCC(=O)O | 6.12
O=C(N1CCOCC1)C12CC3CC(C1)CC(n1cnc(Cl)n1)(C3)C2 | 2.09
CCn1cnnc1SCC(=O)c1c(N)n(C2CC2)c(=O)[nH]c1=O | 9.4
COC(=O)c1c(NC(=O)CCS(=O)(=O)c2ccccc2)sc2c1CCN(C)C2.Cl | -13.3
Cc1ccc(C)c(S(=O)(=O)N2CCN(C(=O)C3CC3C)CC2)c1 (stereo not drawn) | 7.35
O=C(CCN1C(=O)C2CC=CCC2C1=O)N1CCN(c2ccccn2)CC1 (stereo not drawn) | 9.35
FCCCOc1ccc(/C=N/OCc2ccc(Cl)cc2Cl)cc1 | 9.53

SMILES | hERG current change (%, negative = inhibition) at 1uM [%]
CCc1nnc(NC(=O)c2oc3cc(C)c(C)cc3c2C)s1 | 6.68
O=C(Nc1ccc(Oc2ccccc2)nc1)C1CCCCN1Cc1ccc(OCCO)cc1 (stereo not drawn) | 9.03
O=C1c2cccc3cc(Br)cc(c23)C(=O)N1Nc1ccccc1 | 14.6
O=C(N/N=C/c1ccc2c(c1)OCO2)c1ccc(NS(=O)(=O)c2cccs2)cc1 | 8.33
COc1ccc(C(=O)O/N=C/c2ccc(S(=O)c3ccc(Cl)cc3)nc2)cc1 (stereo not drawn) | 11.6
O=C(c1cccc(Oc2c(Cl)cccc2[N+](=O)[O-])c1)N1CCOCC1 | 3.79
CCCNC(=O)N1[C@H]2CC[C@@H]1C(C(=O)OC)=C(c1ccc(C(C)=O)cc1)C2 | 10.1
CCOC(=O)C1CCCCN1Cc1ccc(C(F)(F)F)cc1 (stereo not drawn) | 14.2
CCOc1ccc2c(c1)C(NC(C)=O)C(=O)N2CCN1CCOCC1.Cl (stereo not drawn) | 12.3
CC1(C)CC(NC(=O)c2ccc(Cl)cc2Cl)CC(C)(C)N1 | 12.3
CCC(C)N(C(=O)Cn1c(Cl)nc2c1c(=O)n(C)c(=O)n2C)C1CCS(=O)(=O)C1 (stereo not drawn) | 1.88
CCOc1ccc(/C=N/NC(=O)c2ccccc2NC(=O)c2ccc(OC)cc2)cc1 | 3.71
CC1CCCC(n2cnc3cc(C(=O)O)ccc32)C1C (stereo not drawn) | 8.94
N#Cc1ccsc1NC(=O)c1cnccn1 | -11
Cc1ccc(N(C(=O)c2nsc(Cl)c2Cl)C(C(=O)NC2CCCC2)c2ccc(O)cc2)cc1C (stereo not drawn) | 9.87
Cc1ccc(S(=O)(=O)CC(C)(O)CS(=O)(=O)c2ccc(C)cc2)cc1 | 10.4
N/C(=N\OC(=O)c1cccc(Br)c1)c1ccc(Br)cc1 | 2.01
O=C(NC(=S)Nn1cnc2c(cnn2-c2ccccc2)c1=O)c1ccccc1 | 7.47
COC(=O)NC1(C(=O)O)CCCC1 | -0.0441
Cc1ccc2oc(C(=O)NCc3ccc(S(N)(=O)=O)cc3)cc(=O)c2c1 | 14.2
C/C(=N\NC(=O)c1nnn(-c2nonc2N)c1-c1cccs1)c1ccncc1 | 2.02
CCOc1ccc(CNC(=O)Cn2nc(C)c3c(C)n(-c4ccc(C)cc4)nc3c2=O)cc1 | 6.12
COc1ccc(NC(=O)C(CC(=O)O)Cc2ccccc2)cc1 (stereo not drawn) | 8.96

SMILES | hERG current change (%, negative = inhibition) at 1uM [%]
Cc1nc2c(c(C)nn2-c2ccccc2)c(C)c1CCC(=O)Nc1ccc(CN2CCCC2)cc1 | 2.5
COc1ccc(C)cc1N(C)C(=O)Cc1c(C(=O)O)n(C)c2ccccc12 | 10.8
Nc1nnc(SCC(=O)Nc2nnc(-c3ccccc3)o2)s1 | 15.7
CCCn1c(SC(C(=O)Nc2cccc(OC)c2)c2ccccc2)nc2ccccc2c1=O (stereo not drawn) | 4.61
CC(C)N=C(NC#N)SCC(=O)NC(C)(C)C | 6.29
O=C(c1ccc2n[nH]nc2c1)N1CCN(c2ccc(C(F)(F)F)cn2)CC1 | -5.91
O=C(O)COc1ccccc1/C=N/NC(=O)CNC(=O)c1ccc(F)cc1 | 12.9
CCN(CC)Cc1c(O)c(Cl)cc2c3c(c(=O)oc12)CCCC3 | 5.31
Cc1cccc(NC(=O)COc2ccc(-c3nn(C)c(=O)c4ccccc34)cc2)c1 | -6.58
O=S1(=O)C=C(Sc2nnc(-c3ccccc3)o2)c2ccccc21 | -11
Cc1ccc(N=C(N)N=C(N)N)cc1 | 15.6
CSc1nc(Cl)cc(N2CCOCC2)n1 | 12.7
CC(=O)Nc1ccc(N2C(=O)c3cccc4c(O)ccc(c34)C2=O)cc1 | 13.3
COCCCNC(=O)Cc1c(C)c2c(cc(C)c3c(C(C)(C)C)coc32)oc1=O | 0.222
COc1cc(C(=O)NCC(c2cccnc2)N2CCN(c3ccccc3)CC2)cc(OC)c1OC (stereo not drawn) | 3.11
CCOC(=O)Cn1nc(-c2ccc(C)cc2)ccc1=O | -4.09
O=C(OCc1ccco1)c1cccnc1 | 5.87
COc1ccc(NC(=O)C2(c3ccccc3)CCCC2)cc1 | 22.4
O=C(NC(=S)Nc1ccccc1N1CCCC1)c1ccco1 | 0.475
Cc1noc(C)c1C(=O)N1CCCC(N2CCN(c3cccc(C(F)(F)F)c3)CC2)C1 (stereo not drawn) | -13.4
Cc1ccccc1NC(=O)CN1C(=O)NC2(CCCCC2)C1=O | 2.22
Cc1cc(S(=O)(=O)Nc2ccc(N(C)C)cc2)c(C)s1 | 5.54
Cc1ccc(S(=O)(=O)Cc2c(C)noc2C)cc1 | 7.04

SMILES | hERG current change (%, negative = inhibition) at 1uM [%]
CCN(CC)C(=O)C1CCC(CNS(=O)(=O)c2cccc3nsnc23)CC1 (stereo not drawn) | 4.25
COc1ccccc1C(CNC(=O)C1COc2ccccc2O1)N1CCCC1 (stereo not drawn) | 15.7
[Cl-].c1ccc(COc2ccc(-c3sc(Nc4ccccc4)n[n+]3-c3ccccc3)cc2)cc1 | 10.6
Cc1cccc(OCc2nc(C#N)c(N3CC(C)CC(C)C3)o2)c1 (stereo not drawn) | 3.7
N#Cc1ccc(NC(=O)Nc2ccc(Cl)cc2)cc1 | 7.36
CCNC(=O)c1cc(Cl)ccc1OC | 3.4
S=C(NCCCN1CCOCC1)N1CCN(c2nc(-c3ccc(Cl)cc3)cs2)CC1 | -2.41
Cc1ccc(/C=C(\C#N)C(=O)NCc2ccco2)o1 | 4.56
CCOc1ccc(N2CC(C(=O)Nc3ccccc3C(=O)N3CCOCC3)CC2=O)cc1 (stereo not drawn) | 14.7
Cl.Clc1ccc(CNCCC2=CCCCC2)cc1 | -8.61
CCN1CCN(C(=O)C2CCC(CNS(=O)(=O)c3ccc(NC(C)=O)cc3)CC2)CC1 (stereo not drawn) | 12.6
O=S(=O)(c1cccs1)N1CCN(CCc2ccccc2)CC1 | 20.8
CC(C)C(=O)Nc1cccc(NC(=O)c2cccc(Br)c2)c1 | -3.1
COc1ccc(OC)c(C2=NOC(C(=O)NCc3ccco3)C2)c1 (stereo not drawn) | 15.6
COc1cc2c(cc1OC)C(c1ccccc1)N(C(=O)CCl)CC2 (stereo not drawn) | 16.3
O=C(O)C1CCC(NSc2ccccc2[N+](=O)[O-])CC1 (stereo not drawn) | 8.17
Cn1c2ccccc2c2ncn(Cc3ccc(F)cc3)c(=O)c21 | 10.1
CCCCOP(=O)(c1ccc(N(C)C)cc1)C(O)c1ccccc1F (stereo not drawn) | 2.82
COc1ccc(S(=O)(=O)N2CCC(C(=O)NCCC(=O)Nc3cccc(OC)c3)CC2)cc1 | 9.47
CN(C)Cc1ccccc1Sc1ccc(Br)cc1 | 3.69
CCCc1n[nH]c2c1C(=O)C(C(=O)OC)C(C)(C)C2 (stereo not drawn) | 5.57
